Out of some 370,000 compounds screened, about 150 (0.041%) were called active. This list was built around the results that the source calls inconclusive (neither active nor inactive); the mix of calls is not that of the screen. Calls follow the shape of the dose curve; as a rule, active = well fitted inhibition curve with a large enough effect; inconclusive = small, poorly fitted or top-dose-only effect; inactive = flat fitted curve, though single readings scatter. Potencies of inconclusive entries are left out as doubtful fits.
target: Beta-lactamase (Escherichia coli (strain K12)) (UniProt P00811); test: qHTS Inhibitors of AmpC Beta-Lactamase (assay with detergent); details: AmpC hydrolysis of nitrocefin, absorbance 480 nm, 0.01% Triton; series mostly up to 114 µM; also: nearly all actives have a fitted effect of over 25% in size
UniProt P00811, sequence (P00811 whole entry, looked up): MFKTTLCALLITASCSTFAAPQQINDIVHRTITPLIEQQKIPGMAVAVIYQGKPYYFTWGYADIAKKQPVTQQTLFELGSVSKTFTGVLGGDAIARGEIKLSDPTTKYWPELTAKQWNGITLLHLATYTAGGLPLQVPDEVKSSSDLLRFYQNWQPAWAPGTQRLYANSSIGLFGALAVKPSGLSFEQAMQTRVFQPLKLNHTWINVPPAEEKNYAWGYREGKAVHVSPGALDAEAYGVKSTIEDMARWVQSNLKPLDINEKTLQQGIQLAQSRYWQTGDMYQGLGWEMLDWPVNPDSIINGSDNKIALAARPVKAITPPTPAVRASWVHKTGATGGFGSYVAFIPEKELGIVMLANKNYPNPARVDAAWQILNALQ
Outline: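 20 mM phosphate pH 7.0 + 0.01% (detergent screen) or 0.0001% Triton X-100; 5.3 nM AmpC reagent; cpd preinc 15 min RT; nitrocefin (800 uM stock) to start; A480 q20 s × 4 min; Activity was normalised to no-enzyme and no-compound control wells.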
Potency is read from the fitted curve at half-maximal effect; tags tell the direction and shape of the fitted curve.

Compound | Potency
O=c1[nH]c(-c2ccccc2)cs1 | inconclusive [inhibitor, full curve]
COC(=O)c1ccc(NC(=S)NC2CC(C)(C)NC(C)(C)C2)cc1 | inactive
CCN(CC)S(=O)(=O)c1ccc2c(c1)nc(SCC(=O)N1CCCCCC1)n2-c1ccc(OC)cc1 | inactive
Cc1ccc(S(=O)(=O)N2CCCN(c3nc4cc(C)ccc4cc3C#N)CC2)cc1 | inconclusive [inhibitor, single point]
CC1CCCN(CCCN2C(=O)C3C(C(=O)Nc4cccc(Cl)c4)C4C=CC3(O4)C2C(=O)NC2CCCCC2)C1 (centres undefined) | inconclusive [inhibitor, full curve]
O=C1c2ccccc2C(=O)N1OCc1c(F)cccc1Cl | inactive
CCOC(=O)/C(C#N)=C/c1cn(CCC(=O)O)nc1-c1ccc(Br)cc1 | inconclusive [inhibitor, full curve]
CCOC(=O)c1ccccc1NC(=O)Cc1c(C(=O)O)c(C)cn1C | inactive
CCOc1ccccc1N1CCN(CC(=O)Nc2nnc(CC)s2)CC1 | inconclusive [inhibitor, partial curve]
CCOc1ccc(/C(O)=C2/C(=O)C(=O)N(CCCn3ccnc3)C2c2cccs2)cc1Cl (centres undefined) | inconclusive [inhibitor, single point]
COc1ccc(Cc2nc(-c3ccccn3)no2)cc1 | inconclusive [inhibitor, single point]
COc1ccccc1/C=C/C(=O)NC(=S)Nc1ccccn1 | inactive
COc1ccc(N2CCN(C(=O)CSc3nc4c(c(=O)n(C)c(=O)n4C)n3C(C)C)CC2)cc1 | inconclusive [inhibitor, full curve, poor fit]
COc1ccc(CCNC(=O)CSc2nc(=O)[nH]c3c2CCC3)cc1OC | inconclusive [inhibitor, single point]
CN(C)CCN1C(=O)C(O)=C(C(=O)c2cc3ccccc3o2)C1c1ccc(N(C)C)cc1 (centres undefined) | inactive
CCOC(=O)c1cc(NC(=O)N(CC)C2CCCCC2)c(C)nc1C | inactive
CCN(CC)C(=O)c1cccc(-c2ccc(OC)cc2)c1 | inconclusive [inhibitor, full curve, poor fit]
CCS(=O)(=O)N1CCCC(C(=O)NCCc2ccc(OC)c(OC)c2)C1 (centres undefined) | inconclusive [inhibitor, partial curve]
COCCCn1c(=N)c(C(=O)NC2CCCCC2)cc2c(=O)n3ccccc3nc21 | inconclusive [inhibitor, partial curve, poor fit]
O=C(c1cc(COc2ccc(F)cc2Cl)on1)N1CCCCCCC1 | inconclusive [inhibitor, full curve, poor fit]
Cc1ccc(CN2CCN(CC(=O)NC(C)c3ccc4c(c3)OCCO4)C2=O)cc1 (centres undefined) | inconclusive [inhibitor, full curve]
COC(=O)c1c(N)sc2c1CC(C)(C)OC2 | inconclusive [inhibitor, full curve, poor fit]
COc1cc(C(CC(=O)N2CCOCC2)c2c(OC)cc(OC)c3ccc(=O)oc23)cc(OC)c1OC (centres undefined) | inactive

Compound | Potency
O=C(O)/C=C\c1ccccc1Oc1ccc(F)cc1 | inconclusive [inhibitor, full curve, poor fit]
CCc1cc(C(=O)N2CCCC(C(=O)c3ccc(C(F)(F)F)cc3)C2)n(C)n1 (centres undefined) | inconclusive [inhibitor, partial curve]
CCCCN(CCNP(=O)(OCC)OCC)CP(=O)(OCC)OCC | inconclusive [inhibitor, partial curve]
CC(=O)Oc1ccc(/C=N/NC(=O)C2CCCN2S(=O)(=O)c2ccc(Cl)cc2)cc1 (centres undefined) | inconclusive [inhibitor, full curve, poor fit]
O=C(c1ccc(-n2cncn2)c([N+](=O)[O-])c1)N1CCN(S(=O)(=O)c2ccc(Cl)cc2)CC1 | inconclusive [inhibitor, full curve]
C(=C\c1ccccc1)/C=N/N1CCN(Cc2ccccc2)CC1 | inconclusive [inhibitor, partial curve, poor fit]
N=c1c[n+](C2CCCCC2)[n-]o1 | inconclusive [inhibitor, single point]
COc1cc(NC(=O)C(NC(=O)C2CCC(C)CC2)C(C)C)cc(OC)c1OC (centres undefined) | inactive
COc1ccc2ccccc2c1CN1CCCC(CO)C1 (centres undefined) | inconclusive [inhibitor, full curve, poor fit]
C=CCN1C(=O)/C(=C\C(C)=C\c2ccccc2)SC1=S | inconclusive [inhibitor, partial curve]
N#Cc1ccc(Cl)cc1NC(=O)COC(=O)c1ccc(S(=O)(=O)N2CCCC2)cc1 | inconclusive [inhibitor, single point]
CCOC(=O)c1c(C(=O)OCC)c(C)n(Cc2cc(OC)c(OC)c(OC)c2)c1C | inactive
COCCOC(=O)C1=C(C)NC(SCC(=O)NC(C)(C)C)=C(C#N)C1c1ccco1 (centres undefined) | inactive
O=C(CNC(=O)c1ccccc1)OC1CCCCC1 | inactive
CCCCN(CC)CCCNC(=O)c1cn(CC(C)C)c(=O)c2c1c1ccccc1n2C | inactive
COc1ccc(C2NCCc3cc(OC)c(OC)cc32)cc1OC (centres undefined) | inconclusive [inhibitor, full curve, poor fit]
Cn1cc(S(=O)(=O)NCc2cccs2)c(=O)n(C)c1=O | inconclusive [inhibitor, full curve]
COC(=O)C1=C(c2ccccc2OCc2ccccc2)C[C@@H]2CC[C@H]1N2C(=O)NCCc1ccc(F)cc1 | inactive
O=C1OCc2cc(NS(=O)(=O)c3cccs3)ccc21 | inconclusive [inhibitor, full curve, poor fit]
CC(Oc1ccccc1)C(=O)Nc1cc(Cl)ccc1-n1cncn1 (centres undefined) | inconclusive [inhibitor, single point]
Cc1ccc(S(=O)(=O)Nc2nc(C)c(C(=O)NN)s2)cc1 | inactive
CCOc1ccc(OCC)c(NC(=O)CC2Oc3ccc(C)cc3NC2=O)c1 (centres undefined) | inconclusive [inhibitor, full curve, poor fit]
NC(=O)NC(=O)CC1S/C(=N/N=C/c2ccccc2)NC1=O (centres undefined) | inactive

Compound | Potency
CCCc1cc(=O)n2nc(N3CCC(C(=O)NCc4ccc(C)o4)CC3)sc2n1 | inconclusive [inhibitor, full curve, poor fit]
C=CCOC(=O)/C(=C\c1cccc2ccccc12)NC(=O)c1ccccc1 | inactive
C=CCn1c(COc2cccc(C)c2)nnc1SC(C)C(=O)NC1CC1 (centres undefined) | inactive
CS(=O)(=O)Nc1ccccc1C(=O)Nc1ccc2c(c1)OCCO2 | inactive
CCOc1ccc(-c2cn[nH]c2N)cc1 | inconclusive [inhibitor, full curve, poor fit]
S=c1[nH]nc(-c2ccccn2)n1/N=C/c1c(Cl)cccc1Cl | inactive
CCC(C)(C)n1nnnc1C(c1ccc(O)c(OC)c1)N1CCc2ccccc2C1 (centres undefined) | inactive
COCCN1CCN(C(=O)C2CCC(=O)N(Cc3ccccc3F)C2)CC1 (centres undefined) | inactive
Cc1ccc(S(=O)(=O)N/N=C/c2cccc([N+](=O)[O-])c2)cc1 | inconclusive [inhibitor, partial curve, poor fit]
CCCC(=O)Nc1nnc(CC(=O)OCC)s1 | inconclusive [inhibitor, single point]
Cn1cc(Br)c(C(=O)NC2CCCCCC2)n1 | inconclusive [inhibitor, full curve, poor fit]
CCN1CCN(Cc2ccc(NC(=O)Nc3ccccc3OC)cc2)CC1 | inconclusive [inhibitor, partial curve, poor fit]
CC(C)CNS(=O)(=O)c1ccc(OCC(=O)NCc2ccco2)cc1 | inconclusive [inhibitor, partial curve, poor fit]
Cc1ccc(-c2ccc(/C=N/NC(=O)c3ccccc3O)o2)cc1 | inactive
Cc1cc(NC(=O)CCC(=O)N(CC(=O)NCC2CCCO2)c2ccccc2)no1 (centres undefined) | inconclusive [inhibitor, full curve, poor fit]
O=C(Nc1cc(Cl)ccc1-n1cncn1)c1cn2ccccc2n1 | inconclusive [inhibitor, full curve, poor fit]
CCc1cc(C)cc(OCCNC(=O)c2ncn[nH]2)c1 | inconclusive [inhibitor, full curve]
CCCCc1cc(=O)oc2cc(OCC(=O)N3CCC(C(=O)O)(c4ccccc4)CC3)ccc12 | inconclusive [inhibitor, full curve, poor fit]
O=C(NCCc1ccc(Cl)cc1)c1cnc2n(c1=O)CCS2 | inconclusive [inhibitor, full curve]
CC(=O)Oc1ccc(-c2ccc(C(=O)O)cc2)cc1 | inconclusive [inhibitor, full curve, poor fit]
O=C(O)CCSCC(=O)Nc1c(C(=O)C2CC2)oc2ccccc12 | inconclusive [inhibitor, partial curve, poor fit]
CC(=O)Nc1ccc(C(=O)CSc2nnc(C)o2)cc1 | inconclusive [inhibitor, partial curve]
Cc1ccc(C(=O)Nc2ccc3c(c2)N(C)C(=O)c2ccccc2S3)cc1F | inactive

Source: PubChem BioAssay AID485294 (National Center for Advancing Translational Sciences (NCATS), 2010)
